Laboratory results reported in PubChem BioAssay AID686971 (National Center for Advancing Translational Sciences (NCATS), 2013).
The campaign covered roughly 360,000 compounds. About 7,500 (2.1%) were called active. The call rests on the fitted dose curve; in most records, active means well fitted cell-killing curve with a large enough effect; inconclusive means small, poorly fitted or top-dose-only effect, or effect the other way, or another doubt; inactive means no such curve, though single readings can be large or run the other way. The inconclusive results got no clear call from the source. No potency is given beside an inconclusive call; the fits are too rough.

assay: qHTS for induction of synthetic lethality in tumor cells producing 2HG: qHTS for the HT-1080-IDH1KD cell line; details: HT-1080 IDH1 knockdown viability, ATP luminescence, 48 h; series mostly up to 46.1 µM
From the text: Unbiased genomic sequencing for 22 glioma genomes found recurrent mutation of IDH1 on chromosome 2q33, a gene encoding the cytosolic isoform of IIDH1 associated with the tri-carboxylic acid cycle (TCA) that catalyzes the oxidative decarboxylation of isocitrate, yielding alpha-ketoglutarate and CO2 via NADP+ to NADPH conversion. Subsequent studies confirmed the recurrent IDH mutations in up to 70% of secondary gliomas and in 10% of AML cases. […]
Suspensions of trypsinized HT-1080-IDH1KD cells were dispensed into white, tissue culture-treated, solid 1536-well plates at 5uL/well (750 cells/well final concentration) in RPMI medium supplemented with 5% FBS. […] The plates were measured on a PerkinElmer ViewLux plate reader for luminescent signal (clear filter, 1 sec exp.). […]
Concentration-response curves were fitted to the signals arising from the resulting luminescence. The concentration-effect curves were then classified based on curve quality (r2), response magnitude and degree of measured activity, and compounds were subsequently categorized based on their curve class.
Potency means the concentration at half of the fitted maximal effect; tags describe the fitted curve by direction and shape.

Question: Which Potency does the source give for `O=C(Nc1ccc(C(=O)O)cc1)/C(=C\C=C\c1ccccc1)NC(=O)c1cccc(Br)c1` here?
Answer: Its Potency is inconclusive [cytotoxic, partial curve].

Question: With `O=C1NN(c2ccc(F)c(Cl)c2)C(=O)/C1=C\c1cccc(OC(=O)c2cccs2)c1` as the molecule, how does the Potency read?
Answer: The Potency was inconclusive [cytotoxic, single point].
